Source: PubChem BioAssay AID1768 (National Center for Advancing Translational Sciences (NCATS), 2009)
The whole screen tested about 270,000 compounds, of which about 620 (0.23%) were called active. Inconclusive means that the source gave no clear call. Such entries were picked first, then a sample of the others. Calls follow the shape of the dose curve; as a rule, active = well fitted inhibition curve with a large enough effect in the polarisation, with a control signal flat (not every such curve was filed as active); inconclusive = small, poorly fitted or top-dose-only effect, or effect the other way, or a change in a side signal; inactive = no such curve, though single readings can be large or run the other way; the % refers to the polarisation. Potencies of inconclusive entries are doubtful fits and often do not repeat. “Side channel” marks fits to a control or component signal instead of the main read-out.

What follows are molecules tested against Menin (Homo sapiens) (UniProt O00255) (assay: qHTS Assay for Inhibitors Targeting the Menin-MLL Interaction in MLL Related Leukemias: Competition With Texas Red Labeled MLL-derived Mutant Peptide). Settings: fluorescence polarization; FP activity change, negative = inhibition: at 61.6 µM (top of the series).
Chain of UniProt O00255 (O00255 whole entry, looked up): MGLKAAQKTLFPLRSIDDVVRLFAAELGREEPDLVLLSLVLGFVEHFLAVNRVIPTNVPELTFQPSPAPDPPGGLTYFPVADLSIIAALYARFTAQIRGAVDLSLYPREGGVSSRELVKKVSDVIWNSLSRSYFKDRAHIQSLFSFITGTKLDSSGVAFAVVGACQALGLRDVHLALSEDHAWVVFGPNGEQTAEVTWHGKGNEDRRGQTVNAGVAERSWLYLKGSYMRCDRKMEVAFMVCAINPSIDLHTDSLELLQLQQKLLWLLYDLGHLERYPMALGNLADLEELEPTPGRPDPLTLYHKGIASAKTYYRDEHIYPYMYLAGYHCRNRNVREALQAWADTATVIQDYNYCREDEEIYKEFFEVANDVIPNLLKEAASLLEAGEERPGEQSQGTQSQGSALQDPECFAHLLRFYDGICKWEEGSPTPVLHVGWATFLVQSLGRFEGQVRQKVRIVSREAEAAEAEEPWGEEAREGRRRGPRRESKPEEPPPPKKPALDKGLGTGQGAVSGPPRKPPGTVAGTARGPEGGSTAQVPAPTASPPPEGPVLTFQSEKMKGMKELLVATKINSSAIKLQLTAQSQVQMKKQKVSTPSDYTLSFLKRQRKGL

For FP activity change, negative = inhibition in this document: % of control where 0% means no effect.
Potency is read from the fitted curve at half-maximal effect; tags tell the direction and shape of the fitted curve or compound fluorescence and quenching.

Row | SMILES | Potency | FP activity change, negative = inhibition
1 | CCN(CC)CCNCc1ccc(Br)cc1OCC(=O)NCc1ccccc1 | inconclusive: 39.8 µM [inhibitor, single point] | –
2 | Cc1nn(-c2ccccc2)c(/N=C/c2ccc(O)cc2)c1-c1ccccc1 | inconclusive: 17.8 µM [quencher, side channel, single point] | –
3 | COc1ccccc1CC(=O)N1CCCc2ccccc21 | inconclusive: 31.6 µM [fluorescent, side channel, single point] | –
4 | CC(C)(C)NC(=O)c1cccc2c1-c1ccccc1C2=O | inconclusive: 31.6 µM [inhibitor, partial curve, poor fit] | –
5 | Cc1ccc(-c2cc(C3C4C=CCC(C)C4C(=O)N3Cc3ccccc3)ccc2F)cc1 (configuration not stated) | inconclusive: 17.8 µM [inhibitor, partial curve] | –
6 | O=C1CCSc2ccc(Cl)cc2N1Cc1ccccc1 | inconclusive: 31.6 µM [inhibitor, partial curve] | –
7 | COc1ccc(OC)c(-c2csc(NC(=O)c3ccccc3F)n2)c1 | inconclusive: 35.5 µM [quencher, side channel, single point] | –
8 | Cc1ccc(C)c(NC(=O)CCN2CCc3ccccc3C2)c1 | inconclusive: 8.91 µM [fluorescent, side channel, full curve, poor fit] | –
9 | O=C(COC(=O)C1(c2cccc(F)c2)CCCC1)NCc1ccc2c(c1)OCO2 | inconclusive: 3.55 µM [fluorescent, side channel, full curve, poor fit] | –
10 | COc1cc(CNc2ccc(N3CCN(C(C)=O)CC3)cc2)ccc1OCc1ccccc1 | – | inactive: -23%
11 | O=C(CC1Sc2ncnn2C1=O)Nc1ccc(Br)cc1 (configuration not stated) | inconclusive: 8.91 µM [quencher, side channel, partial curve] | –
12 | CC(C)(C)Nc1nc(-c2ccccn2)nc2ccccc12 | inconclusive: 2.82 µM [inhibitor, full curve] | –
13 | COc1cccc(Nc2ccc([N+](=O)[O-])c3nonc23)c1 | inconclusive: 11.2 µM [quencher, side channel, partial curve] | –
14 | CC1=NN(c2ccc(C(=O)O)cc2)C(=O)/C1=C\c1ccc(OC(=O)c2cccs2)cc1 | inconclusive: 35.5 µM [quencher, side channel, single point] | –
15 | COc1ccc(NC(=O)C2=CC(c3cccs3)=NS(=O)(=O)N2C)cc1 | inconclusive: 31.6 µM [quencher, side channel, single point] | –
16 | Cc1ccc(NC(=O)CN2C(=O)CCSc3ccc(S(=O)(=O)N4CCCC4)cc32)cc1 | inconclusive: 25.1 µM [fluorescent, side channel, single point] | –
17 | O=[N+]([O-])c1ccc2nc(-c3ccc(Cl)cc3)[nH]c2c1 | inconclusive: 14.1 µM [quencher, side channel, partial curve] | –
18 | CC(=O)c1sc(NC(=O)c2cnc(Cl)c(Cl)c2)nc1C | inconclusive: 17.8 µM [quencher, partial curve] | –
19 | COC(=O)C1=NN[C@H](C(=O)OC)[C@H]1c1ccccc1 | – | inactive: -15.1%

Row | SMILES | Potency | FP activity change, negative = inhibition
20 | CN(C(=O)/C=C/c1ccco1)c1ccccc1C(=O)O | – | inactive: 7.02%
21 | COCCNC(=O)c1ccc(C)c(NC(=O)C2=C(C)OCCS2)c1 | inconclusive: 39.8 µM [inhibitor, single point] | –
22 | CCOC(=O)C(C(=O)OCC)c1c([N+](=O)[O-])c(=O)n2c3c(cccc13)CCC2 | inconclusive: 10 µM [inhibitor, partial curve] | –
23 | O=[N+]([O-])c1cccc(/C=N\N=C2c3ccccc3-c3ccccc32)c1O | inconclusive: 8.91 µM [quencher, side channel, partial curve] | –
24 | CC1=C(c2ccc(F)cc2)[N+](=O)C(C)(C)N1[O-] | inconclusive: 15.8 µM [quencher, side channel, partial curve] | –
25 | COc1ccc(C(=O)NCc2nnc(SCC(=O)Nc3cccc(F)c3)o2)cc1 | inconclusive: 1.58 µM [inhibitor, partial curve, poor fit] | –
26 | COc1ccc(CCN=CC2=C(O)CC(C)(C)CC2=O)cc1 | inconclusive: 39.8 µM [inhibitor, single point] | –
27 | CC(C(=O)c1ccc(Br)cc1)[n+]1cccc2ccccc21 (configuration not stated) | inconclusive: 35.5 µM [inhibitor, single point] | –
28 | CN1c2ccccc2C(O)=C(C(=S)Nc2ccc(F)c(Cl)c2)S1(=O)=O | inconclusive: 14.1 µM [quencher, side channel, partial curve] | –
29 | O=C(Nc1ccccc1)Nc1ncc([N+](=O)[O-])s1 | inconclusive: 12.6 µM [quencher, side channel, partial curve] | –
30 | CC(C)CNC(=S)NC1CC2CCC(C1)N2Cc1ccccc1 (configuration not stated) | inconclusive: 1.41 µM [inhibitor, full curve] | –
31 | CC(C)(C)C(=O)/C=c1\s/c(=C\c2ccc(-c3ccc([N+](=O)[O-])cc3)o2)c(=O)n1CC(=O)NC(N)=O | inconclusive: 4.47 µM [quencher, side channel, partial curve] | –
32 | CC(=O)Nc1ccc(S(=O)(=O)NCCOc2ccc(Cl)cc2C)cc1 | inconclusive: 14.1 µM [quencher, side channel, partial curve] | –
33 | CC(C)CCC1(CCNC(C)c2cccs2)CCOC(C)(C)C1 (configuration not stated) | inconclusive: 25.1 µM [fluorescent, side channel, single point] | –
34 | COc1c(OC(C)=O)ccc(/C=C/c2ccc3ccccc3n2)c1[N+](=O)[O-] | inconclusive: 11.2 µM [quencher, side channel, partial curve] | –
35 | COc1ccccc1CN(C)CC(=O)NC1CCCc2ccccc21 (configuration not stated) | inconclusive: 14.1 µM [fluorescent, side channel, partial curve] | –
36 | CC1(C)CSC(=NCc2ccccc2)N1C(=O)c1cccc([N+](=O)[O-])c1 | inconclusive: 31.6 µM [inhibitor, single point] | –
37 | COc1cccc(-c2noc(-c3ccc(Br)o3)n2)c1 | inconclusive: 12.6 µM [quencher, side channel, partial curve, poor fit] | –
